Laboratory results from the RNAGym collection of RNA variant scans (doi:10.1093/nar/gkz1192).
Read counts are not given, so values of variants with three or more changes are uncertain.

B1: CPEB3 Ribozyme (parent)
chain: UAACAGGGGGCCACAGCAGAAGCGUUCACGUCGCAGCCCCUGUCAGAUUCUGGUGAAUCUGCGAAUUCUGCUGUAUAUCUC

Variants of: B1
Assay: self-cleavage, relative activity (ratio to wild type); higher = more cleavage; in vitro, sequencing
Method in brief: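 Relative activity compares each variant's cleaved/total read fraction with that of the unmutated ribozyme. To get these fractions, barcoded CPEB3 ribozyme libraries from rounds of error-prone PCR were transcribed with T7 RNA polymerase for 5 hours at 37°C and then given 15 min of DNase I treatment before EDTA was added. The RNAs were reverse transcribed with template switching and sequenced on Illumina, and DNA sequencing linked barcodes to variants. A minimum of 5 reads applied, and three batches were averaged.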

Variant | self-cleavage
G16A U66C A75G A77G | 0.09
G16A U26C U41C U51A A57U | 0.12
G16C U25A U41A U49C U66A | 0.22
A15U G52C U54A | 0.32
A15U U41A A77U | 0.13
G16A U25C G30C U78A U80C | 0.28
A15U U51A U78A | 0.91
G16A U31C U54C U74C U78A | 0.36
G16U U51A U69C | 0.09
C17G A64U A77G | 0.11
A15U C38A U43C | 0.31
C17G C62U U80C | 0.05
G16A A21U U48C U51A | 0.14
A15U U67C U76C | 0.18
G16A U25C A28U U80A | 0.1
G16A U25C U51A G70U U74C | 0.06
C17A U26C C40U A57G | 0.26
G16A G24A U25C U49A G53C | 0.05
A15U U25A A45G A47C U48C | 0.23
G16A U26C U60C U74A A75G | 0.13
A15U U25C A45C U51A C71A | 0.07
C17G U25C A56G U72A | 0.14
C17A G24A A35U A47G U80A | 0.06
A15U U31C U41C U72A | 0.73

Variant | self-cleavage
G16A A18G U78A | 0.28
G16C U26C A45C U54A A57G | 0.14
G16A A21G A56U U78C | 0.14
G16A U25C A35G U43C A64G A65G | 0.19
A15U G33U U51A A56G G63C U74A | 0.08
C17A U49G A56G U60G | 0.17
A15U U41A A75U | 0.24
A15U C50A C71U | 0.05
G16A A20G A45U U49C | 0.17
C17G U26A U43G U51A A64G U69C | 0.08
G16C U25C U41A U60A | 0.13
G16A G30A A64G | 0.07
G16A A28U U43G A45U U49C U54C A64G | 0.06
G16U A18G U31C | 0.25
C17G A18U A35G U72A | 0.13
A15U U26G U72A | 0.33
A15U U25C U60C U67G | 0.07
A15U G16U U25C U41C U54C | 0.09
C17G C23G U43C A65G U72C U80C | 0.12
G16U U41A A56G U72A | 0.08
A15U U67G G70A | 0.09
A15U U31G U41A A57U | 0.12
A15U G24A U31C U41C | 0.16
C17A A20G A35G U48C A57G U69C | 0.34

Variant | self-cleavage
A15U G30A U41C U49C U78C | 0.06
C17G U43C U51C U72A | 0.18
A15U U26C A35U U43G U60A | 0.05
G16A A45G U54A U60C U80C | 1.19
A15U C38U C68U U72C | 0.26
C17A U26A A45G U54G A56U A75G U80C | 0.13
G16A U25C A56G U58A U69A | 0.07
G16A U26C A28U U54C U60C U74A | 0.08
G16A A45G U67C | 0.11
G16A A20G G33U C40U A47U A65G | 0.05
C17A G19U U58C C62G | 0.08
A15U U31A U48C U60C U69C | 0.1
A15U U25C A64G U72C | 0.2
C17G A20U C32U | 0.32
G16C U41A U69C | 0.08
A15U U25C A77G | 0.26
G16U A21G G33A U54C U60A | 0.07
G16A C29A U43A A56U A64U U74C U78C | 0.06
A15U U26C C32U A35G A45G A64U C81U | 0.04
A15U U26C U67A | 0.24
C17G U25C A64G | 0.05
A15U U31C C40U A56G U60A U66A U80G | 0.04
C17G A28G A64G | 0.11
A15U U60A A64G | 0.12

Variant | self-cleavage
A15U U60A A64U | 0.12
C17A A45G U72C U80C | 0.38
A15U U25C U26A U43G A56G U74C | 0.18
A15U C40U A47G U67C | 0.05
G16U A20G G36C U43G U51C A56U | 0.06
A15U U49C U60A A77U U80C | 0.1
G16C A28G U80C | 0.53
G16C U25C U54C U66C U72A U78C | 0.06
A15U U41A U78C | 0.35
A15U G24A U31C U41A U54A A56G U78A | 0.08
G16A U41A A64U U69C U78C | 0.06
G16C A21C A47U U60C | 0.27
A15U U31C A64G U72C | 0.16
C17G A21G A64G U67C | 0.24
A15U G16U A28G U51C U80C | 0.1
C17A A47G U54C | 0.07
C17A U43C U49C | 0.09
G16U G33A U78C U80A | 0.17
A15U G16C C29U U58C U72A | 0.16
A15U U31C A35C A75G | 0.67
A15U U31C C40U U69A | 0.07
G16U U26A U41A U80A | 0.08
G16C U31C A47U U60C A75G | 0.06
A15U U41A A65G U66G U67C G73A C81A | 0.03

Variant | self-cleavage
G16U U25A A35G A75U C79G | 0.18
A15U U43G U80C | 0.28
C17G A28G C34U U74C U76C | 0.1
A15U G30A U60A U76A | 0.09
A15U U31A C39U | 0.18
G16U A47U A57U A65G U72C | 0.07
A15U U48C C79G | 0.44
G16U A20G U48A A57G U69A | 0.17
A15U U31A U43C | 0.32
C17G U49A U78C | 0.36
A15U U26A G30A C40U U58C U60C A77G | 0.04
G16U U26A U49A U67A G70U | 0.05
A15U C38G A64G U78C U80C | 0.02
A15U U26C U43C U54C U58C A75U U78C | 0.3
G16C U26C U49C A77U U78A | 0.27
A15U U41C U67C | 0.19
A15U U51C G61U A64G | 0.08
C17G A35G U41C A64U | 0.08
A15U C44G A56U | 0.11
A15U G42A G61C U66C | 0.12
C17A U31A U67C | 0.16
C17G C62U A64G | 0.08
G16A U49A U58A | 0.29
A15U U25C C39U C40U U69C A77G | 0.02

Variant | self-cleavage
A15U U41G A56G | 0.06
G16A U25C A45U A56U G63C | 0.2
A15U G24A U51A A56G | 0.08
C17A A18G A21G A47G U54A U78C | 0.16
A15U U26C U31A | 0.26
A15U U26A G61U U67C U74A | 0.05
A15U G16A A20G U76C | 0.25
G16U A18U U25A A35U | 0.19
G16C U26C U60C | 0.54
A15U U25A A75G | 0.13
A15U U67C U69C U76C | 0.1
A15U G33A A56G | 0.17
A15U U48C U54A A56G | 0.23
A15U U41A U54A A56G U80A | 0.25
A15U G16A U26A | 0.5
A15U G24A U26C U43C A65G | 0.06
A15U U54C U66C A77U U80C | 0.19
A15U U26C C40A A77U U78C | 0.04
C17G A28U U78A | 0.21
A15U U31C U41C U69A C79U | 0.16
A15U U26C C32U A35G U43C C62U U72A | 0.15
G16A U41G U49C A56G | 0.07
A15U U26A U31C A65G A77G | 0.13
G16A C32U U72G | 0.13

Variant | self-cleavage
A15U G55A A57G U69A | 0.27
G16U U54A U66C | 0.11
C17A C34U A47G U51C | 0.35
G16A A21G U51C C59U U60G G70U | 0.01
A15U U26A U43C U78C | 0.14
A15U U41C G52C G53A C59U U60C | 0.23
A15U U43C U51G A57G A65G U78C | 0.05
C17G U41G U54C | 0.16
A15U U67A U72A A75U | 0.18
A15U C38U G73A | 1.28
A15U U31C U48C | 0.18
G16A A28U U31C U60C | 0.14
A15U U54C A77G | 0.91
A15U U25C A28U U43G U51A | 0.15
A15U U43C U54C G63U U74C | 0.44
A15U G42A U54A U69C | 0.2
A15U U49C A56U | 0.16
A15U G22U U26C U49C U60C U67A | 0.14
G16A A21G U31C U51A U58C A75G | 0.05
A15U U69C U76A | 0.36
A15U U26A U41C | 0.48
C17G U41A U76C | 0.11
A15U U49C A56G C62U C71U A75G | 0.07
